The values that follow come from paper PMC4232260, “The crystal structure of the RhoA–AKAP-Lbc DH–PH domain complex” (Biochemical Journal, 2014).

What all share (details): both partners purified
The target in assay [1] is T1, AKAP-Lbc DH domain (UniProt Q12802-2 1976-2211).
T1 construct: DH domain, Glu1976-Lys2211, terminating at the end of helix alphaI; numbers count on: AKAP13 isoform 1, NP_006729.4; Tag removal is told only through 'a similar protocol'; also called AKAP13 DH domain; DH domain alone; source: E. coli, purified following a similar protocol as the DH-PH domain; not shown: His6, N-terminal, cleaved
T1 sequence (looked up): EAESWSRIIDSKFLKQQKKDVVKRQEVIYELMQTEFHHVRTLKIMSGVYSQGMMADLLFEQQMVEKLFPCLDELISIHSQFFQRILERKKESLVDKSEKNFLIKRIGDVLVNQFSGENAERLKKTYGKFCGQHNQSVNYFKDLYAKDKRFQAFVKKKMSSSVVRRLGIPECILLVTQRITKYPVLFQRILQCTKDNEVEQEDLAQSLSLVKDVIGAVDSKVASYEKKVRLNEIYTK
Kind of assay: ITC; without GDP: RhoA freed of nucleotide (5 mM EDTA, alkaline phosphatase, gel filtration); 0.6 mM RhoA in the syringe, 0.04 mM DH or DH-PH domain in the cell; 15°C; GF buffer (50 mM Hepes pH 7.5, 500 mM NaCl, 5% glycerol, 0.5 mM TCEP); single-site model. For orientation: Isothermal titration calorimetry measures the heat released or taken up as one component is titrated into another.

Assay [2] deals with T2, AKAP-Lbc DH-PH domain (UniProt Q12802-2 1973-2342).
T2 construct: numbers count on: AKAP13 isoform 1, NP_006729.4; TEV cleavage at * would leave SM at the N-terminus; also called AKAP13 DH-PH; AKAP-Lbc RhoGEF domain; source: E. coli BL21(DE3) with pRARE2, purified (Ni2+-Sepharose, TEV cleavage, gel filtration); not shown: His6, N-terminal, cleaved
T2 sequence (looked up): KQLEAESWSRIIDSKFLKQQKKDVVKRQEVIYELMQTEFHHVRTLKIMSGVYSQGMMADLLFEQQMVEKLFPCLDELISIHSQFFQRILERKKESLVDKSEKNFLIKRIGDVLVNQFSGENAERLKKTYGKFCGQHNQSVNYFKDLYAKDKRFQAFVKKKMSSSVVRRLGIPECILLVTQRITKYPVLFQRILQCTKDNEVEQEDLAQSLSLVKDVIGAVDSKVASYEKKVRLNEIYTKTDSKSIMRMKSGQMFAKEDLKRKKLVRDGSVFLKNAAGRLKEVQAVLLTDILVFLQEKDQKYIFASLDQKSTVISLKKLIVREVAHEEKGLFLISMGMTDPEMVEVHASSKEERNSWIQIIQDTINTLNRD
Described as above.

Assay [3] addresses T1, AKAP-Lbc DH domain. Nature of the assay: ITC; with GDP: 0.6 mM RhoA in the syringe, 0.04 mM DH or DH-PH domain in the cell; 15°C; GF buffer (50 mM Hepes pH 7.5, 500 mM NaCl, 5% glycerol, 0.5 mM TCEP) with 50 uM GDP; single-site model.
Assay [4] has as its target T2, AKAP-Lbc DH-PH domain. The assay is described as above.

B1: RhoA ([…]) (domain or fragment)
chain: not shown
notes: RhoA, […]; DNA template from the Mammalian Gene Collection; TEV cleavage at * would leave SM at the N-terminus; also called RhoA-GDP; apo-RhoA; source: E. coli BL21(DE3) with pRARE2, purified (Ni2+-Sepharose, TEV cleavage, gel filtration); not shown: His6, N-terminal, cleaved
The term Kd denotes the equilibrium constant for the complex coming apart. The low end stands for tighter binding, the high end for weaker binding. The term stoichiometry N denotes a count of units in the complex or per binding partner. Take B1: the Kd with AKAP-Lbc DH domain [1] came out at 10.2 µM; with AKAP-Lbc DH-PH domain [2], 33.9 µM; with AKAP-Lbc DH domain [3], 21.3 µM; with AKAP-Lbc DH-PH domain [4], 18.1 µM. Further, the dH in the assay with AKAP-Lbc DH domain [1] came out at 12.7 kcal/mol; with AKAP-Lbc DH-PH domain [2], 49.6 kcal/mol; with AKAP-Lbc DH domain [3], 20.2 kcal/mol; with AKAP-Lbc DH-PH domain [4], 7.6 kcal/mol. Moreover, the “stoichiometry N” value is 0.68 with AKAP-Lbc DH domain [1], 0.35 with AKAP-Lbc DH-PH domain [2], 0.55 in the assay with AKAP-Lbc DH domain [3] and 0.55 in the assay with AKAP-Lbc DH-PH domain [4].
